In patent publication US20210388118A1 (ZHEJIANG SHIMAI PHARMACEUTICAL, published 2021):
Where a chain is given by its changes, count along the chain named. One block for each binder: values may come before it.

Experiments:
[1] = molecular target: T1, human EGFR on cells (HCT116, A549, A431, HT29) (human, UniProt P00533); assay: cell-based or functional assay
[2] = molecular target: T1, human EGFR on cells (HCT116, A549, …); assay: flow cytometry on HCT116 cells, 2 µg/mL
[3] = molecular target: T2, recombinant cynomolgus CD3 (cynomolgus, UniProt Q95LI5 22-117); assay: ELISA, recombinant cCD3 coated
T2 construct: Bought protein; subunit make-up not described; also called cCD3
T2 sequence (looked up): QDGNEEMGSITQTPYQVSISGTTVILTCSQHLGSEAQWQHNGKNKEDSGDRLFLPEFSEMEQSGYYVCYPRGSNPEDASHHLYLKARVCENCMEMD
Experimental: (§1) ELISA was performed according to standard protocols. […] The plates were washed with PBS containing 0.05% Tween 20. […] The assay was developed at room temperature with TMB substrate (Sigma-Aldrich) and monitored at 450 nm with a microplate reader.

recombinant human CD3 = molecular target: T3, recombinant human CD3 (human, UniProt P07766 23-126); assay: ELISA, recombinant hCD3 coated
Chain of recombinant human CD3 (P07766 23-126): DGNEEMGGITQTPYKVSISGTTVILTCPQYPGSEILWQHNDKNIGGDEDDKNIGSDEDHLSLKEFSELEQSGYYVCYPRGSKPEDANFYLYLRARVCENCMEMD
T3 construct: Bought protein; subunit make-up not described; also called hCD3
Experimental: as §1

B2: proBiTE-12 (protease cleavable bispecific T cell engager, EGFR×CD3, dual cleavable linker) (bispecific antibody)
heavy: EVQLVETGGGVVQPGRSLRLSCAASGFTFSSYAMHWVRQAPGKGLEWVAVISYDGSNKYYADSVKGRFTISRDNSKNTLYLQMNSLRAEDTAVYYCARGYVARGDFDYWGQGTLVTVSSGGGSSGGGGSGGGGSQVQLVQSGGGVVQPGRSLRLSCKASGYTFTRYTMHWVRQAPGKGLEWIGYINPSRGYTNYNQKVKDRFTISTDKSKSTAFLQMDSLRPEDTAVYYCARYYDDHYSLDYWGQGTTLTVSSASTKGPSVFPLAPSSKSTSGGTAALGCLVKDYFPEPVTVSWNSGALTSGVHTFPAVLQSSGLYSLSSVVTVPSSSLGTQTYICNVNHKPSNTKVDKKVEPKS[… human IgG1 Fc with T366L Y407H (EU numbers) …]
light: DVVMTQSPSTLSASVGDRVTITCRASQSMSRWLAWYQQKPGKGPKLLIYATSTLQSGVPSRFSGSGSGTEFTLTISSLQPEDFATYYCQQLDSFPFSFTFGPGTKVDLKGGGGSLSGRSDNHGPLGLARKDIQMTQSPSSLSASVGDRVTITCSASSSVSYMNWYQQTPGKAPKRWIYDTSKLASGVPSRFSGSGSGTDYTFTISSLQPEDIATYYCQQWSSNPFTFGQGTKLQITRTVAAPSVFIFPPSDEQLKSGTASVVCLLNNFYPREAKVQWKVDNALQSGNSQESVTEQDSKDSTYSLSSTLTLSKADYEKHKVYACEVTHQGLSSPVTKSFNRGE[… human IgG1 Fc with T366L Y407H (EU numbers) …]
killing of HT29 cells (luciferase) with human PBMC, EC50 [1]: ~0.006 nM

B3: proBiTE-1s2 (bispecific antibody)
heavy: B2 heavy
light: DVVMTQSPSTLSASVGDRVTITCRASQSMSRWLAWYQQKPGKGPKLLIYATSTLQSGVPSRFSGSGSGTEFTLTISSLQPEDFATYYCQQLDSFPFSFTFGPGTKVDLKGSGGSRSDNHGGGGSDIQMTQSPSSLSASVGDRVTITCSASSSVSYMNWYQQTPGKAPKRWIYDTSKLASGVPSRFSGSGSGTDYTFTISSLQPEDIATYYCQQWSSNPFTFGQGTKLQITRTVAAPSVFIFPPSDEQLKSGTASVVCLLNNFYPREAKVQWKVDNALQSGNSQESVTEQDSKDSTYSLSSTLTLSKADYEKHKVYACEVTHQGLSSPVTKSFNRGE[… human IgG1 Fc with T366L Y407H (EU numbers) …]
notes: Variant of proBiTE-1, not sensitive to uPA
binding result [2]: binds

B4: proBiTE-1s1 (bispecific antibody)
heavy: B2 heavy
light: B3 light with G113S, S114G
notes: Variant of proBiTE-1
binding result [2]: binds

B5: HBiTE (H-shaped bispecific T cell engager, EGFR×CD3, non-cleavable linkers) (bispecific antibody)
heavy: B2 heavy
light: B3 light with S111G, R115G, S116G, D117G, N118G, H119S
notes: also called H-shaped BiTE
killing of HT29 cells (luciferase) with human PBMC, EC50 [1]: 2 nM
killing of HT29 cells, fold less potent than iBiTE [1]: ~300 fold

More lines, main results first:

T cell activation (Promega bioassay, Jurkat NFAT-Luc2) with A431 cells, EC50 [1]: ~0.08 nM
B1: iBiTE (I-shaped bispecific T cell engager, EGFR×CD3) (bispecific antibody)
heavy: EVQLVETGGGVVQPGRSLRLSCAASGFTFSSYAMHWVRQAPGKGLEWVAVISYDGSNKYYADSVKGRFTISRDNSKNTLYLQMNSLRAEDTAVYYCARGYVARGDFDYWGQGTLVTVSSGGGGSGGGGSGGGGSDVVMTQSPSTLSASVGDRVTITCRASQSMSRWLAWYQQKPGKGPKLLIYATSTLQSGVPSRFSGSGSGTEFTLTISSLQPEDFATYYCQQLDSFPFSFTFGPGTKVDLKGGGSSGGGGSGGGGSQVQLVQSGGGVVQPGRSLRLSCKASGYTFTRYTMHWVRQAPGKGLEWIGYINPSRGYTNYNQKVKDRFTISTDKSKSTAFLQMDSLRPEDTAVYYCARYYDDHYSLDYWGQGTTLTVSSASTKGPSVFPLAPSSKSTSGGTAALGCLVKDYFPEPVTVSWNSGALTSGVHTFPAVLQSSGLYSLSSVVTVPSSSLGTQTYICNVNHKPSNTKVDKKVEPKS[… human IgG1 Fc with T366L Y407H (EU numbers) …]
light: DIQMTQSPSSLSASVGDRVTITCSASSSVSYMNWYQQTPGKAPKRWIYDTSKLASGVPSRFSGSGSGTDYTFTISSLQPEDIATYYCQQWSSNPFTFGQGTKLQITRTVAAPSVFIFPPSDEQLKSGTASVVCLLNNFYPREAKVQWKVDNALQSGNSQESVTEQDSKDSTYSLSSTLTLSKADYEKHKVYACEVTHQGLSSPVTKSFNRGE[… human IgG1 Fc with T366L Y407H (EU numbers) …]
notes: Two-chain heterodimer; also called i-shaped BiTE
killing of HT29 cells (luciferase) with human PBMC, EC50 [1]: ~0.006 nM

binding result [2]: binds
B6: proBiTE-1s (bispecific antibody)
heavy: B2 heavy
light: B3 light with G112L, G113S, S114G
notes: Variant of proBiTE-1; also called proBiTE-ls

EC50 [3]: 2.4 nM
EC50 (recombinant human CD3): 1.9 nM
B7: proBiTE-1s1sp (EGFR×CD3, SMET5.2 Fv on hSP34 Fab-mFc7.2, cleavable linker) (bispecific antibody)
heavy: EVQLVETGGGVVQPGRSLRLSCAASGFTFSSYAMHWVRQAPGKGLEWVAVISYDGSNKYYADSVKGRFTISRDNSKNTLYLQMNSLRAEDTAVYYCARGYVARGDFDYWGQGTLVTVSSGGGSSGGGGSGGGGSEVQLVESGGGLVQPGGSLRLSCAASGFTFNTYAMNWVRQAPGKGLEWVARIRSKYNNYATYYADSVKGRFTISRDDSKNTLYLQMNSLRAEDTAVYYCVRHGNFGNSYVSYFAYWGQGTTVTVSSASTKGPSVFPLAPSSKSTSGGTAALGCLVKDYFPEPVTVSWNSGALTSGVHTFPAVLQSSGLYSLSSVVTVPSSSLGTQTYICNVNHKPSNTKVDKKVEPKS[… human IgG1 Fc with T366L Y407H (EU numbers) …]
light: DVVMTQSPSTLSASVGDRVTITCRASQSMSRWLAWYQQKPGKGPKLLIYATSTLQSGVPSRFSGSGSGTEFTLTISSLQPEDFATYYCQQLDSFPFSFTFGPGTKVDLKGSGSGRSDNHGGGGSEIVVTQSPATLSVSPGERATLSCRSSTGAVTTSNYANWVQQKPGQAPRGLIGGANKRAPGVPARFSGSLSGDEATLTISSLQSEDFAVYYCALWYSNLWVFGQGTKLEIKRTVAAPSVFIFPPSDEQLKSGTASVVCLLNNFYPREAKVQWKVDNALQSGNSQESVTEQDSKDSTYSLSSTLTLSKADYEKHKVYACEVTHQGLSSPVTKSFNRGE[… human IgG1 Fc with T366L Y407H (EU numbers) …]
modifications: Biotinylated in the ELISA per paragraph 229; sites not stated.
